From the supplement of paper PMC8728848
Some of the results follow.

Tests used:
Assay in all cases: glycan array binding signal (z-score within array); higher = stronger binding
Details in all cases: glycan notation: IUPAC condensed, linker removed
Fuc(a1-2)Gal = target: Fuc(a1-2)Gal
Method in brief: (§1)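 Glycan array data came from 3228 arrays in the Consortium for Functional Glycomics database, and only arrays with an available protein sequence were kept. Glycan names were put into IUPAC-condensed notation, and columns mapping to the same glycan were averaged. The binding signal is a within-array Z-score, averaged across arrays of one protein sequence run at different concentrations or buffers and across linkers. A negative Z-score can be read as non-binding.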

Fuc(a1-2)Gal(b1-3)GalNAc = target: Fuc(a1-2)Gal(b1-3)GalNAc
Method in brief: as §1

[1] = target: Fuc(a1-2)Gal(b1-3)GalNAc(b1-3)Gal
Method in brief: as §1

[2] = target: Fuc(a1-2)Gal(b1-3)GalNAc(b1-3)Gal(a1-4)Gal(b1-4)Glc
Method in brief: as §1

[3] = target: Fuc(a1-2)Gal(b1-3)GalNAc(b1-4)[Neu5Ac(a2-3)]Gal(b1-4)Glc
Method in brief: as §1

Fuc(a1-2)Gal(b1-3)GlcNAc = target: Fuc(a1-2)Gal(b1-3)GlcNAc
Method in brief: as §1

[4] = target: Fuc(a1-2)Gal(b1-3)GlcNAc(b1-2)Man(a1-3)[Fuc(a1-2)Gal(b1-3)GlcNAc(b1-2)Man(a1-6)]Man(b1-4)GlcNAc(b1-4)GlcNAc
Method in brief: as §1

[5] = target: Fuc(a1-2)Gal(b1-3)GlcNAc(b1-3)Gal(b1-4)Glc
Method in brief: as §1

[6] = target: Fuc(a1-2)Gal(b1-3)GlcNAc(b1-3)[Gal(b1-4)[Fuc(a1-3)]GlcNAc(b1-6)]Gal(b1-4)Glc
Method in brief: as §1

[7] = target: Fuc(a1-2)Gal(b1-3)[Fuc(a1-4)]GlcNAc
Method in brief: as §1

[8] = target: Fuc(a1-2)Gal(b1-3)[Fuc(a1-4)]GlcNAc(b1-2)Man(a1-3)[Fuc(a1-2)Gal(b1-3)[Fuc(a1-4)]GlcNAc(b1-2)Man(a1-6)]Man(b1-4)GlcNAc(b1-4)GlcNAc
Method in brief: as §1

Fuc(a1-2)Gal(b1-4)Glc = target: Fuc(a1-2)Gal(b1-4)Glc
Method in brief: as §1

Fuc(a1-2)Gal(b1-4)Glc6S = target: Fuc(a1-2)Gal(b1-4)Glc6S
Method in brief: as §1

Fuc(a1-2)Gal(b1-4)GlcNAc = target: Fuc(a1-2)Gal(b1-4)GlcNAc
Method in brief: as §1

[9] = target: Fuc(a1-2)Gal(b1-4)GlcNAc(b1-2)Man(a1-3)[Fuc(a1-2)Gal(b1-4)GlcNAc(b1-2)Man(a1-6)]Man(b1-4)GlcNAc(b1-4)GlcNAc
Method in brief: as §1

[10] = target: Fuc(a1-2)Gal(b1-4)GlcNAc(b1-3)Gal(b1-4)GlcNAc
Method in brief: as §1

[11] = target: Fuc(a1-2)Gal(b1-4)GlcNAc(b1-3)Gal(b1-4)GlcNAc(b1-3)Gal(b1-4)GlcNAc
Method in brief: as §1

[12] = target: Fuc(a1-2)Gal(b1-4)GlcNAc6S
Method in brief: as §1

[13] = target: Fuc(a1-2)Gal(b1-4)[Fuc(a1-3)]GlcNAc
Method in brief: as §1

[14] = target: Fuc(a1-2)Gal(b1-4)[Fuc(a1-3)]GlcNAc(b1-2)Man(a1-3)[Fuc(a1-2)Gal(b1-4)[Fuc(a1-3)]GlcNAc(b1-2)Man(a1-6)]Man(b1-4)GlcNAc(b1-4)GlcNAc
Method in brief: as §1

[15] = target: Fuc(a1-2)Gal(b1-4)[Fuc(a1-3)]GlcNAc(b1-3)Gal(b1-4)[Fuc(a1-3)]GlcNAc
Method in brief: as §1

[16] = target: Fuc(a1-2)Gal(b1-4)[Fuc(a1-3)]GlcNAc(b1-3)Gal(b1-4)[Fuc(a1-3)]GlcNAc(b1-3)Gal(b1-4)[Fuc(a1-3)]GlcNAc
Method in brief: as §1

Fuc(a1-2)Gal6S(b1-4)Glc = target: Fuc(a1-2)Gal6S(b1-4)Glc
Method in brief: as §1

[17] = target: Fuc(a1-2)Gal6S(b1-4)Glc6S
Method in brief: as §1

[18] = target: Fuc(a1-2)Gal6S(b1-4)GlcNAc
Method in brief: as §1

Fuc(a1-2)[Gal(a1-3)]Gal = target: Fuc(a1-2)[Gal(a1-3)]Gal
Method in brief: as §1

[19] = target: Fuc(a1-2)[Gal(a1-3)]Gal(b1-3)GlcNAc
Method in brief: as §1

[20] = target: Fuc(a1-2)[Gal(a1-3)]Gal(b1-3)GlcNAc(b1-2)Man(a1-3)[Fuc(a1-2)[Gal(a1-3)]Gal(b1-3)GlcNAc(b1-2)Man(a1-6)]Man(b1-4)GlcNAc(b1-4)GlcNAc
Method in brief: as §1

[21] = target: Fuc(a1-2)[Gal(a1-3)]Gal(b1-4)Glc
Method in brief: as §1

[22] = target: Fuc(a1-2)[Gal(a1-3)]Gal(b1-4)GlcNAc
Method in brief: as §1

B1: GALT1 115 D492A (Arabidopsis thaliana), Q8L7F9 (protein)
chain: DPMRGSHHHHHHGMASMTGGQQMGRDLYDDDDKSRLQKPYITAAASVVVTPNTTLPMEWLRITLPDFMKEARNTQEAISGDDIAVVSGLFVEQNVSKEEREPLLTWNRLESLVDNAQSLVNGVDAIKEAGIVWESLVSAVEAKKLVDVNENQTRKGKEELCPQFLSKMNATEADGSSLKLQIPCGLTQGSSITVIGIPDGLVGSFRIDLTGQPLPGEPDPPIIVHYNVRLLGDKSTEDPVIVQNSWTASQDWGAEERCPKFDPDMNKKVDDLDECNKMVGGEINRTSSTSLQSNTSRGVPVAREASKHEKYFPFKQGFLSVATLRVGTEGMQMTVDGKHITSFAFRDTLEPWLVSEIRITGDFRLISILASGLPTSEESEHVVDLEALKSPTLSPLRPLDLVIGVFSTANNFKRRMAVRRTWMQYDDVRSGRVAVRFFVGLHKSPLVNLELWNEARTYGDVQLMPFVDYYSLISWKTLAICIFGTEVDSAKFIMKTDDAAFVRVDEVLLSLSMTNNTRGLIYGLINSDSQPIRNPDSKWYISYEEWPEEKYPPWAHGPGYIVSRDIAESVGKLFKEGNLKMFKLEDVAMGIWIAELTKHGLEPHYENDGRIISDGCKDGYVVAHYQSPAEMTCLWRKYQETKRSLCCREW
Fuc(a1-2)Gal
  glycan array binding signal (z-score): -0.208
Fuc(a1-2)Gal(b1-3)GalNAc
  glycan array binding signal (z-score): -0.409
[1]
  glycan array binding signal (z-score): 1.79
[2]
  glycan array binding signal (z-score): 0.257
[3]
  glycan array binding signal (z-score): -0.145
Fuc(a1-2)Gal(b1-3)GlcNAc
  glycan array binding signal (z-score): 0.211
[4]
  glycan array binding signal (z-score): -0.264
[5]
  glycan array binding signal (z-score): -0.108
[6]
  glycan array binding signal (z-score): -0.105
[7]
  glycan array binding signal (z-score): -0.125
[8]
  glycan array binding signal (z-score): 0.146
Fuc(a1-2)Gal(b1-4)Glc
  glycan array binding signal (z-score): 0.174
Fuc(a1-2)Gal(b1-4)Glc6S
  glycan array binding signal (z-score): -0.383
Fuc(a1-2)Gal(b1-4)GlcNAc
  glycan array binding signal (z-score): -0.291
[9]
  glycan array binding signal (z-score): 0.318
[10]
  glycan array binding signal (z-score): -0.512
[11]
  glycan array binding signal (z-score): 6.73
[12]
  glycan array binding signal (z-score): -0.411
[13]
  glycan array binding signal (z-score): 8.05
[14]
  glycan array binding signal (z-score): 0.558
[15]
  glycan array binding signal (z-score): -0.068
[16]
  glycan array binding signal (z-score): 1.49
Fuc(a1-2)Gal6S(b1-4)Glc
  glycan array binding signal (z-score): -0.076
[17]
  glycan array binding signal (z-score): -0.103
[18]
  glycan array binding signal (z-score): 0.416
Fuc(a1-2)[Gal(a1-3)]Gal
  glycan array binding signal (z-score): -0.217
[19]
  glycan array binding signal (z-score): -0.352
[20]
  glycan array binding signal (z-score): -0.187
[21]
  glycan array binding signal (z-score): -0.456
[22]
  glycan array binding signal (z-score): -0.399
